In PubChem BioAssay AID360 (National Center for Advancing Translational Sciences (NCATS), 2006):
About 550 (1.1%) of roughly 48,000 compounds were called active. The shares of active, inactive and inconclusive entries below differ from those in the screen. No stated cut-off is given here; in the data, active means potency below about 15 µM; inconclusive means mostly about 16 µM to 33 µM; inactive means weaker than that. No potency is given beside an inconclusive call; the fits are too rough.

molecular target: Lysosomal acid glucosylceramidase (Homo sapiens) (UniProt P04062); experiment: Glucocerebrosidase; details: purified enzyme, resorufin glucoside fluorescence (screen aimed at inhibitors), 20 min;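 further: the screen sought inhibitors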
UniProt P04062, sequence (P04062 whole entry, looked up): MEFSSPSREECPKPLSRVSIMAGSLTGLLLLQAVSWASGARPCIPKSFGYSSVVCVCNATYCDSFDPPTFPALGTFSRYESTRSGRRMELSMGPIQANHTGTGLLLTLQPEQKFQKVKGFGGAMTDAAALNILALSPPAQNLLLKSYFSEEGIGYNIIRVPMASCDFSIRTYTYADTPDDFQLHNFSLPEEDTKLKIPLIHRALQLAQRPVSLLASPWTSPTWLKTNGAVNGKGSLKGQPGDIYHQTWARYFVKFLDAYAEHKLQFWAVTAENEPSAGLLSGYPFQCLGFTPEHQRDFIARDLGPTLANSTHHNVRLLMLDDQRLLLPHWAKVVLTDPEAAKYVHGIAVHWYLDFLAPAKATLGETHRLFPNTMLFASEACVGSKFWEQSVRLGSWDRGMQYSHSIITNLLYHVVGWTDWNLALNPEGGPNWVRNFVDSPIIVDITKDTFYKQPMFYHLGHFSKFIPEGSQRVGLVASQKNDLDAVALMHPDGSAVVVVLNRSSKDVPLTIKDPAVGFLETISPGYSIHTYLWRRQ
How it was run: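 Compounds titrated against 0.2 nM normal enzyme, 30 uM resorufin beta-D-glucopyranoside substrate, citrate/phosphate buffer with taurocholate and tween-20, pH 5.9. Reaction ran 20 min at room temperature; fluorescence (Ex 548/Em 600) gave AC50.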
Potency means the concentration at half of the fitted maximal effect.

SMILES	Potency
CCc1ccc(CNc2ccc(N3CCN(C(C)=O)CC3)cc2)cc1	active: 12.4 µM
N#Cc1nc(-c2ccco2)oc1N1CCN(c2ccccc2)CC1	inconclusive [increasing]
COC(=O)C1=CN(C)C=C(C(=O)OC)C1c1ccc(O)c(OC)c1	inactive: > 76.9 µM
CCCC1(C(=O)OCC)NC(c2ccc(N(C)C)cc2)C2C(=O)N(c3ccc(OCC)cc3)C(=O)C21 (stereo not given)	inconclusive [decreasing]
COc1ccc(OC)c(NC(=O)c2cc3ccccc3o2)c1	inconclusive [increasing]
COc1ccc(-c2c(C)nn3c(N4CCC(C(=O)NCCN(C)C)CC4)cc(C)nc23)cc1OC	inconclusive [decreasing]
O=C(NCCN1CCOCC1)[C@H](Cc1ccccc1)N1C(=O)c2ccccc2C1=O	inconclusive [decreasing]
Cc1nc2nc(SCC(N)=O)[nH]c2cc1Br	inconclusive [decreasing]
CC(C)(C)c1ccc(C(=O)Nc2nonc2-c2nc3ccccc3[nH]2)cc1	active: 2.44 µM
CCC(Sc1nc2n[nH]c(C)c2c(=N)n1-c1cccc(Cl)c1)C(=O)NCCOC (stereo not given)	inconclusive [decreasing]
CC(C)COc1ccc(C(=O)CCN2CCCCC2)cc1	inconclusive [decreasing]
CCOC(=O)C1CCCN(c2ncnc3c2cnn3-c2cccc(C)c2)C1 (stereo not given)	inconclusive [increasing]
N#Cc1cccc(-n2nnnc2-c2ccc3c(c2)OCO3)c1	inactive: > 76.9 µM
CC1=C(C(=O)OCC2CCCO2)C(c2ccccc2OC(C)C)C2=C(CC(c3ccco3)CC2=O)N1 (stereo not given)	inconclusive [decreasing]
N#C/C(=C1\CCCN1)c1ccc2ccccc2n1	inactive
COCCCNC(=O)c1ccc2c(c1)ncn2-c1ccccc1OC	inconclusive [decreasing]
CCC(c1nnnn1C(C)(C)C)N1CCN(c2cc(Cl)ccc2C)CC1 (stereo not given)	inactive: > 76.9 µM
CN1CCc2nc(SCCOc3ccccc3)c(C#N)cc2C1	active: 10.4 µM
O=C(Cn1c(=O)n(CC2CCCO2)c(=O)c2ccccc21)N1CCN(c2ccccc2)CC1 (stereo not given)	inconclusive [decreasing]
N#Cc1c2c(c(NCCCN3CCOCC3)n3c1nc1ccccc13)CCC2	inconclusive [decreasing]
Clc1ccc(OCc2nnc(SCc3nc4ccccc4[nH]3)n2Cc2ccco2)cc1	inactive: > 76.9 µM
CCCCn1c(=N)n(CC(O)COc2ccc(C)cc2)c2ccccc21 (stereo not given)	active: 10.6 µM
Cc1ccc(S(=O)(=O)NCCN=C(CN2CCOCC2)NS(=O)(=O)c2ccc(C)cc2)cc1	inconclusive [decreasing]
Cn1c(-c2ccc(Cl)cc2)cnc1N	inconclusive [decreasing]
COc1ccc(NC(=O)c2oc3ccccc3c2NC(=O)COc2ccccc2OC)c(OC)c1	inconclusive [increasing]
COc1ccccc1Nc1ccc(C(=O)NC2CCCCC2)cn1	inconclusive [decreasing]
COCCCN1C(=O)c2ccc(C(=O)Nc3ccc(OC)cc3OC)cc2C1=O	inconclusive [increasing]
Cc1ccc(S(=O)(=O)N2CCOCC(=O)NCCOCCNC(=O)COCC2)cc1	inactive: > 76.9 µM
CC1CCCN(CC(=O)Nc2ccc(S(=O)(=O)N3CCCCCC3)cc2)C1 (stereo not given)	inconclusive [decreasing]
O=C(CCOc1ccccc1)NCC(c1ccco1)N1CCCCC1 (stereo not given)	inactive: > 76.9 µM
